Experimental findings from the supplement of paper PMC12217912 are described below.

The other results are listed elsewhere or left out. Sequences were assembled here from the parent chain. Values near 0.05 are background.

B1: TEV protease; numbered along this chain (parent)
chain: MGESLFKGPRDYNPISSSICHLTNESDGHTTSLYGIGFGPFIITNKHLFRRNNGTLVVQSLHGVFKVKDTTTLQQHLVDGRDMIIIRMPKDFPPFPQKLKFREPQREERICLVTTNFQTKSMSSMVSDTSCTFPSGDGIFWKHWIQTKDGQCGSPLVSTRDGFIVGIHSASNFTNTNNYFTSVPKNFMELLTNQEAQQWVSGWRLNADSVLWGGHKVFMVKPEEPFQPVKEATQL

The assay covers variants of B1. Nature of the assay: raw area under fraction-flipped curve 0-4 h after induction (AUC4h, not background-subtracted), DNA-recorder readout of cleavage of the substrate (dimensionless); higher = more cleavage of the substrate by the protease variant. The conditions noted are these: temperature: 34 °C; time window: 0-4 h after rhamnose induction. Here is the method: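 In vivo DNA recorder in E. coli TOP10(DE3) ΔrhaA at 34 °C. Each TEVp single-site mutant (parent TEVp 0) is paired with a single-site variant of the 7-mer TEVs (canonical ENLYFQ|S). The substrate sits between flexible linkers in a Bxb1-sfGFP-TEVs-SsrA fusion, so cleavage stabilises Bxb1 and speeds flipping of a recombination array, read by NGS. The value is the raw area under the fraction-flipped curve over 0-4 h after rhamnose induction (AUC4h), with ≥20 reads per time point. It is not background-subtracted; inactive controls average about 0.047.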
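Also: Bxb1 expression induced with 0.2% (w/v) L-rhamnose at OD600 near 0.5, cultures sampled hourly, flipped fraction per protease–substrate barcode pair counted by paired-end Illumina sequencing.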

Consider MGESLFKGPRDYNPISSSICHLTNESDGHTTSLYGIGFGPFEITNKHLFRRNNGTLVVQSLHGVFKVKDTTTLQQHLVDGRDMIIIRMPKDFPPFPQKLKFREPQREERICLVTTNFQTKSMSSMVSDTSCTFPSGDGIFWKHWIQTKDGQCGSPLVSTRDGFIVGIHSASNFTNTNNYFTSVPKNFMELLTNQEAQQWVSGWRLNADSVLWGGHKVFMVKPEEPFQPVKEATQL [I42E], for which the “area with substrate EALYFQS” value came to 0.0334, the “area with substrate ECLYFQS” value came to 0.0435, the “area with substrate EELYFQS” value came out at 0.0299 and the “area with substrate EFLYFQS” value worked out at 0.0511. The “area with substrate EGLYFQS” value stood at 0.0385, the “area with substrate EHLYFQS” value is 0.0445, the “area with substrate EILYFQS” value turned out to be 0.0346 and the “area with substrate EKLYFQS” value is 0.0443. Besides, the “area with substrate EPLYFQS” value came out at 0.0432, the “area with substrate ERLYFQS” value came out at 0.0185, the “area with substrate ESLYFQS” value came out at 0.0535 and the “area with substrate ETLYFQS” value stood at 0.0535. In addition, the “area with substrate EVLYFQS” value was found to be 0.045, the “area with substrate EWLYFQS” value was 0.0477 and the “area with substrate EYLYFQS” value came out at 0.0422.
In the case of MGESLFKGPRDYNPISSSICHLTNESDGHTTSLYGIGFGPFMITNKHLFRRNNGTLVVQSLHGVFKVKDTTTLQQHLVDGRDMIIIRMPKDFPPFPQKLKFREPQREERICLVTTNFQTKSMSSMVSDTSCTFPSGDGIFWKHWIQTKDGQCGSPLVSTRDGFIVGIHSASNFTNTNNYFTSVPKNFMELLTNQEAQQWVSGWRLNADSVLWGGHKVFMVKPEEPFQPVKEATQL [I42M], the “area with substrate EALYFQS” value came out at 0.119, the “area with substrate ECLYFQS” value came out at 0.111, the “area with substrate EELYFQS” value amounted to 0.12 and the “area with substrate EGLYFQS” value is 0.114. Further, the “area with substrate EILYFQS” value was determined as 0.0833, the “area with substrate EKLYFQS” value came out at 0.11, the “area with substrate ELLYFQS” value was 0.0817 and the “area with substrate EMLYFQS” value was determined as 0.0815. Also, the “area with substrate EQLYFQS” value came to 0.133, the “area with substrate ERLYFQS” value amounted to 0.093, the “area with substrate ESLYFQS” value was 0.132 and the “area with substrate ETLYFQS” value came out at 0.118. In addition, the “area with substrate EVLYFQS” value stood at 0.0861.
Consider MGESLFKGPRDYNPISSSICHLTNESDGHTTSLYGIGFGPFTITNKHLFRRNNGTLVVQSLHGVFKVKDTTTLQQHLVDGRDMIIIRMPKDFPPFPQKLKFREPQREERICLVTTNFQTKSMSSMVSDTSCTFPSGDGIFWKHWIQTKDGQCGSPLVSTRDGFIVGIHSASNFTNTNNYFTSVPKNFMELLTNQEAQQWVSGWRLNADSVLWGGHKVFMVKPEEPFQPVKEATQL [I42T], for which the “area with substrate EALYFQS” value stood at 0.0634, the “area with substrate ECLYFQS” value amounted to 0.0568, the “area with substrate EDLYFQS” value was 0.0744 and the “area with substrate EHLYFQS” value was 0.075. Moreover, the “area with substrate EILYFQS” value worked out at 0.0523, the “area with substrate EKLYFQS” value worked out at 0.0607, the “area with substrate EMLYFQS” value came to 0.0622 and the “area with substrate EPLYFQS” value was found to be 0.0625. Besides, the “area with substrate EQLYFQS” value came to 0.0769 and the “area with substrate ESLYFQS” value was 0.0621.
As for MGESLFKGPRDYNPISSSICHLTNESDGHTTSLYGIGFGPFPITNKHLFRRNNGTLVVQSLHGVFKVKDTTTLQQHLVDGRDMIIIRMPKDFPPFPQKLKFREPQREERICLVTTNFQTKSMSSMVSDTSCTFPSGDGIFWKHWIQTKDGQCGSPLVSTRDGFIVGIHSASNFTNTNNYFTSVPKNFMELLTNQEAQQWVSGWRLNADSVLWGGHKVFMVKPEEPFQPVKEATQL [I42P], the “area with substrate EALYFQS” value stood at 0.0506, the “area with substrate ECLYFQS” value was 0.0493, the “area with substrate EDLYFQS” value was found to be 0.0441 and the “area with substrate EELYFQS” value was 0.0419. Further, the “area with substrate EFLYFQS” value was 0.0445, the “area with substrate EGLYFQS” value was determined as 0.0617, the “area with substrate EHLYFQS” value was determined as 0.0421 and the “area with substrate EILYFQS” value came to 0.0517. For the same variant, the “area with substrate ELLYFQS” value is 0.0526, the “area with substrate EMLYFQS” value was 0.038, the “area with substrate EQLYFQS” value was 0.0418 and the “area with substrate ERLYFQS” value turned out to be 0.0394. Moreover, the “area with substrate ESLYFQS” value worked out at 0.0367, the “area with substrate ETLYFQS” value is 0.0691, the “area with substrate EVLYFQS” value worked out at 0.05 and the “area with substrate EWLYFQS” value turned out to be 0.0448. For the same variant, the “area with substrate EYLYFQS” value is 0.0509.
As to MGESLFKGPRDYNPISSSICHLTNESDGHTTSLYGIGFPPFIITNKHLFRRNNGTLVVQSLHGVFKVKDTTTLQQHLVDGRDMIIIRMPKDFPPFPQKLKFREPQREERICLVTTNFQTKSMSSMVSDTSCTFPSGDGIFWKHWIQTKDGQCGSPLVSTRDGFIVGIHSASNFTNTNNYFTSVPKNFMELLTNQEAQQWVSGWRLNADSVLWGGHKVFMVKPEEPFQPVKEATQL [G39P], the “area with substrate EALYFQS” value stood at 0.0374, the “area with substrate ECLYFQS” value stood at 0.0444, the “area with substrate EDLYFQS” value turned out to be 0.0431 and the “area with substrate EFLYFQS” value amounted to 0.0454. Also, the “area with substrate EGLYFQS” value stood at 0.0441, the “area with substrate EHLYFQS” value came out at 0.0358, the “area with substrate EPLYFQS” value came to 0.0399 and the “area with substrate EQLYFQS” value worked out at 0.018. The “area with substrate ERLYFQS” value was 0.05, the “area with substrate ESLYFQS” value came to 0.044, the “area with substrate ETLYFQS” value is 0.0293 and the “area with substrate EVLYFQS” value amounted to 0.0448. Also, the “area with substrate EWLYFQS” value came to 0.0489 and the “area with substrate EYLYFQS” value was 0.0455.
Take MGESLFKGPRDYNPISSSICHLTNESDGHTTSLYGIGFGPFIMTNKHLFRRNNGTLVVQSLHGVFKVKDTTTLQQHLVDGRDMIIIRMPKDFPPFPQKLKFREPQREERICLVTTNFQTKSMSSMVSDTSCTFPSGDGIFWKHWIQTKDGQCGSPLVSTRDGFIVGIHSASNFTNTNNYFTSVPKNFMELLTNQEAQQWVSGWRLNADSVLWGGHKVFMVKPEEPFQPVKEATQL [I43M]: the “area with substrate EALYFQS” value came to 0.0984, the “area with substrate ECLYFQS” value worked out at 0.0827, the “area with substrate EDLYFQS” value turned out to be 0.0876 and the “area with substrate EELYFQS” value came to 0.0883. The “area with substrate EGLYFQS” value amounted to 0.074, the “area with substrate EHLYFQS” value came out at 0.0929, the “area with substrate EILYFQS” value was 0.0786 and the “area with substrate EKLYFQS” value was 0.0785. In addition, the “area with substrate ELLYFQS” value is 0.0925, the “area with substrate EMLYFQS” value was 0.0793, the “area with substrate EPLYFQS” value worked out at 0.0924 and the “area with substrate EQLYFQS” value turned out to be 0.0925. The “area with substrate ERLYFQS” value amounted to 0.0644, the “area with substrate ETLYFQS” value was determined as 0.138 and the “area with substrate EVLYFQS” value was determined as 0.0893.
In the case of MGESLFKGPRDYNPISSSICHLTNESDGHTTSLYGIGFGPFIITNKHLERRNNGTLVVQSLHGVFKVKDTTTLQQHLVDGRDMIIIRMPKDFPPFPQKLKFREPQREERICLVTTNFQTKSMSSMVSDTSCTFPSGDGIFWKHWIQTKDGQCGSPLVSTRDGFIVGIHSASNFTNTNNYFTSVPKNFMELLTNQEAQQWVSGWRLNADSVLWGGHKVFMVKPEEPFQPVKEATQL [F49E], the “area with substrate EALYFQS” value stood at 0.0633, the “area with substrate ECLYFQS” value was 0.0581, the “area with substrate EDLYFQS” value stood at 0.0619 and the “area with substrate EELYFQS” value worked out at 0.0462. Moreover, the “area with substrate EFLYFQS” value turned out to be 0.0881, the “area with substrate EGLYFQS” value was determined as 0.0482, the “area with substrate EHLYFQS” value worked out at 0.0655 and the “area with substrate EILYFQS” value worked out at 0.0556. Also, the “area with substrate EKLYFQS” value turned out to be 0.0568, the “area with substrate ELLYFQS” value was determined as 0.0482, the “area with substrate EMLYFQS” value was 0.0592 and the “area with substrate EPLYFQS” value came out at 0.0381. Also, the “area with substrate ERLYFQS” value came out at 0.0338, the “area with substrate ESLYFQS” value is 0.0626, the “area with substrate EVLYFQS” value amounted to 0.0432 and the “area with substrate EWLYFQS” value is 0.0543. Besides, the “area with substrate EYLYFQS” value turned out to be 0.0648.
Regarding MGESLFKGPRDYNPISSSICHLTNESDGHTTSLYCIGFGPFIITNKHLFRRNNGTLVVQSLHGVFKVKDTTTLQQHLVDGRDMIIIRMPKDFPPFPQKLKFREPQREERICLVTTNFQTKSMSSMVSDTSCTFPSGDGIFWKHWIQTKDGQCGSPLVSTRDGFIVGIHSASNFTNTNNYFTSVPKNFMELLTNQEAQQWVSGWRLNADSVLWGGHKVFMVKPEEPFQPVKEATQL [G35C], the “area with substrate EALYFQS” value came to 0.0692, the “area with substrate ECLYFQS” value came out at 0.0558, the “area with substrate EDLYFQS” value turned out to be 0.0527 and the “area with substrate EILYFQS” value was 0.0523. Besides, the “area with substrate EKLYFQS” value is 0.0642, the “area with substrate EPLYFQS” value stood at 0.0613, the “area with substrate EQLYFQS” value came out at 0.0712 and the “area with substrate ERLYFQS” value amounted to 0.0492.
As for MGESLFKGPRDYNPISSSICHLTNESDGHTTSLYGIGFGPFIIVNKHLFRRNNGTLVVQSLHGVFKVKDTTTLQQHLVDGRDMIIIRMPKDFPPFPQKLKFREPQREERICLVTTNFQTKSMSSMVSDTSCTFPSGDGIFWKHWIQTKDGQCGSPLVSTRDGFIVGIHSASNFTNTNNYFTSVPKNFMELLTNQEAQQWVSGWRLNADSVLWGGHKVFMVKPEEPFQPVKEATQL [T44V], the “area with substrate EALYFQS” value turned out to be 0.0948, the “area with substrate ECLYFQS” value was found to be 0.0793, the “area with substrate EDLYFQS” value amounted to 0.107 and the “area with substrate EELYFQS” value is 0.0473. Also, the “area with substrate EILYFQS” value stood at 0.0697, the “area with substrate EKLYFQS” value stood at 0.0735, the “area with substrate ELLYFQS” value amounted to 0.0691 and the “area with substrate EMLYFQS” value was determined as 0.074. Also, the “area with substrate EPLYFQS” value came out at 0.0625, the “area with substrate EQLYFQS” value was determined as 0.078, the “area with substrate ESLYFQS” value is 0.0834 and the “area with substrate EVLYFQS” value worked out at 0.0675. Further, the “area with substrate EYLYFQS” value was found to be 0.0612.
